Consider 86 compounds from PubChem BioAssay AID463173 (ICCB-Longwood Screening Facility, Harvard Medical School, 2010).

About 4,300 (8.3%) of roughly 52,000 compounds were called active. Rule as the data show it: active = survival mostly below about 52% (no sharp cut-off); inactive = mostly above about 56%. Some of the results follow.

The test relates to DeltatarO mutant. In words: S. aureus survival, RN4220 and DeltatarO strains – OD600, teichoic acid synthesis inhibitors, primary screen (AID 463173). Conditions: S. aureus RN4220 wild type/DeltatarO growth, OD600, 18 h, active compounds read low, screened at 18.75 µg/mL (by protocol).
For the compound `CC(=O)c1ccc(Nc2nc3c(S(=O)(=O)c4ccccc4)nnn3c3ccc(Cl)cc23)cc1`, the survival is inactive: 68%. As for `Cc1ccc(NC(=O)Cn2c(=O)c3ccccc3n3nncc23)cc1`, the survival was inactive: 114%. Under `N=C1CNc2ccccc2C(=O)O1` stands inactive: 96%. For the compound `Cc1ccc(C)c(S(=O)(=O)c2nnn3c2nc(Nc2ccc(C)c(C)c2)c2ccccc23)c1`, the survival was inactive: 132%.

As to `COc1cccc(CN(Cc2ccco2)C(c2ccc(OC)c(OC)c2)c2nnnn2Cc2ccccc2)c1` (stereo unspecified), the survival was inactive: 67%. For `Cc1ccc(CCNC(=O)c2c[nH]c3ccc(S(=O)(=O)Nc4ccc(C)cc4C)cc3c2=O)cc1`, the survival is inactive: 104%. With `COc1cccc(NC(=O)CCN2CCN(c3ccccc3)CC2)c1`, the survival is inactive: 62%. Under `COc1cccc(C(=O)NCC(c2ccc(N(C)C)cc2)N2CCc3ccccc32)c1` (stereo unspecified) stands inactive: 144%; under `COc1ccc(-c2nnn(CC(=O)N(CC3CCCO3)C(C(=O)NC3CCCCC3)c3cccs3)n2)cc1` (stereo unspecified), inactive: 87%. Take `Cc1nn(-c2ccc(N3CCCCC3)nn2)c(C)c1CCC(=O)NCc1ccc(OC(C)C)cc1`: the survival was inactive: 82%. With `CC(=O)c1cccc(Nc2nc(-c3cccc(C)c3)nc3ccccc23)c1`, the survival is active: 4%. Under `Cc1ccc(NC(=O)Cn2cc(S(=O)(=O)N3CCCC3)c(S(=O)(=O)N3CCCC3)c2)cc1F` stands inactive: 113%. Under `Cc1ccc(S(=O)(=O)c2c(Nc3cc(C)ccc3C)sc(C(=O)c3ccc4c(c3)OCO4)c2N)cc1` stands inactive: 129%. For `CC(=O)c1c(C)oc2ccc(N(C(=O)Oc3ccccc3)S(=O)(=O)c3ccccc3)cc12`, the survival is inactive: 60%. For the compound `CC1CCCN(c2c(S(=O)(=O)c3ccccc3)cnc3ccc(Cl)cc23)C1` (stereo unspecified), the survival is inactive: 136%. Under `CC(CNC(=O)c1cc(-c2ccccc2)n[nH]1)c1ccccc1` (stereo unspecified) stands inactive: 71%; under `CCCS(=O)(=O)N1CCN(S(=O)(=O)c2ccccc2)CC1`, inactive: 81%; under `CCS(=O)(=O)N1CC(=O)N(c2cc(C)ccc2C)C(C)(C(=O)NC2CCCCC2)C1` (stereo unspecified), inactive: 72%. In the case of `Cc1ccc(Cl)cc1NC(=O)N1CCC2(CC1)Oc1ccccc1C(=O)N2Cc1ccccc1F`, the survival is inactive: 116%. As for `COc1ccc(-n2nnc(-c3nsc(NC(=O)c4cccs4)n3)c2C)cc1OC`, the survival was inactive: 92%. As for `Cc1ccccc1CN(Cc1ccco1)C(=O)c1cc2ccccc2oc1=O`, the survival is active: 44%. Then `Cc1cccc(NC(=O)C(=O)NCCc2sc(-c3ccccc3)nc2C)c1C`, with inactive: 79%. Under `CCOC(=O)CN1C(=O)C(C)(C)Oc2ccc(C(=O)NC(C)C)cc21` stands inactive: 92%; under `Cc1c(Cl)cccc1NC(=O)C(CCS(C)(=O)=O)N1Cc2ccccc2C1=O` (stereo unspecified), inactive: 68%. Then `COc1ccc(-c2cn3c(n2)sc2cc(C(=O)NC4CCCCCC4)ccc23)cc1`, with inactive: 73%. `COc1cccc(NC(=O)c2sc3nc(C)c(C(=O)Nc4ccc(Cl)cc4)c(-c4ccc(Br)cc4)c3c2N)c1`: the survival was inactive: 114%. Regarding `O=C(CSc1n[nH]c(-c2ccccc2)n1)N1CCN(c2ccccc2F)CC1`, the survival is inactive: 120%. Then `CCN1/C(=C\C=C2C(=O)OC(C)(C)OC2=O)Sc2ccccc21`, with inactive: 96%. Then `COc1ccc2c(CNCc3ccccc3OC)c(C(=O)O)n(Cc3ccc(F)cc3Cl)c2c1`, with inactive: 99%. Then `CCc1ccc(NC(=O)C2CCC(CNS(=O)(=O)c3ccc4c(c3)C(C)(C)C(=O)N4C)CC2)cc1` (stereo unspecified), with inactive: 45%. On to `Cc1cccc(NC(=O)c2sc3nc(-c4ccccc4)cn3c2C)c1C`, for which the survival was inactive: 98%. With `Nc1cc(=O)nc(SCC(=O)Nc2ccc(F)cc2)n1-c1cccc(Cl)c1`, the survival was inactive: 145%. Then `Cc1cccc(N2CCN(C(=O)c3c(C)oc4ncnc(N5CCOCC5)c34)CC2)c1C`, with inactive: 88%; and `COc1ccc(C)cc1NC(=O)c1cc(S(=O)(=O)N2CCC(C)CC2)cn1C`, with inactive: 73%; and `COc1ccc(CCN2C(=O)N(c3ccc(C)cc3)C(=O)C2CC(=O)Nc2ccc(F)cc2)cc1` (stereo unspecified), with inactive: 53%. Take `Cc1nn(C(=O)COc2ccccc2Br)c(C)c1Sc1ccccc1`: the survival was inactive: 54%. For `COc1ccc(CN2C(=O)N(c3ccc(F)cc3)C(=O)C2CC(=O)Nc2cc(OC)cc(OC)c2)cc1` (stereo unspecified), the survival was inactive: 81%. Then `CCc1ccc(NC(=O)C(NS(=O)(=O)c2cccc3nsnc23)c2ccccc2)cc1` (stereo unspecified), with inactive: 68%; and `O=C(Cn1c(CC(=O)N2CCCC2)nc2ccccc21)NCc1ccccc1`, with active: 64%. Then `CCOC(=O)C1=C(C)NC(=O)NC1c1cn(-c2ccccc2)nc1-c1ccc(OC(C)C)cc1` (stereo unspecified), with inactive: 44%. Then `O=C(Nc1nc2n(n1)C(c1ccc(Cl)cc1)C=C(c1ccccc1)N2)c1ccco1` (stereo unspecified), with active: 35%.

As for `Cc1nn(C)c2c1c(C(F)(F)F)cc(=O)n2C(C)C(=O)NCCc1ccccc1` (stereo unspecified), the survival was inactive: 75%.

`COc1ccc(CCNC(c2ccc(F)cc2)c2nnc(-c3ccccc3Cl)o2)cc1OC` (stereo unspecified): the survival is inactive: 57%.

`COCC(=O)N(CC1CCCO1)c1nnc(C)s1` (stereo unspecified): the survival was inactive: 83%. Under `COc1ccc(-c2c3c(=O)n(C)c(=O)n(C)c3c3n2-c2ccccc2NC3c2ccc(O)cc2O)cc1` (stereo unspecified) stands active: 0%; under `COc1ccc2c(Sc3ccc(C)cc3)c(C(=O)NCCc3ccccc3)[nH]c2c1`, inactive: 91%. Turning to `COc1ccc(N(CC(=O)Nc2cccc(C(C)=O)c2)S(=O)(=O)c2ccccc2)c(OC)c1`, the survival was active: 48%. Then `Cc1cc(OCCCn2c(CCNC(=O)C3CCCCC3)nc3ccccc32)ccc1Cl`, with active: 4%; and `CCOc1ccc(C(=O)N(Cc2cc(OC)c(OC)c(OC)c2)c2ccccn2)cc1`, with inactive: 80%.

Take `OCc1cnc(SCc2ccc(F)cc2)n1Cc1ccc(F)cc1`: the survival is inactive: 88%. Turning to `O=C(CSc1nc(-c2cccs2)nc2cc(=O)[nH]n12)Nc1cccc(C(F)(F)F)c1`, the survival was inactive: 94%. `O=C(c1ccc2c(c1)N(Cc1c(F)cccc1Cl)C(=O)c1ccccc1S2)N1CCOCC1`: the survival is inactive: 94%. For `CCc1cccc(NC(=O)C2Cc3ccccc3N2C(=O)c2ccccc2)c1` (stereo unspecified), the survival is inactive: 107%. Under `Cc1ccc2c(c1)c(CC(=O)Nc1ccc(C)c(F)c1)c(C(=O)O)n2C` stands inactive: 58%; under `Cc1ccc2nc(COc3ccccc3NC(=O)c3ccccc3F)cc(=O)n2c1`, inactive: 85%; under `CCOc1cccc(C2c3[nH]c4ccccc4c3CCN2C(=O)CSCc2ccc(F)cc2)c1` (stereo unspecified), inactive: 79%. Under `COc1ccc(OC)c(NC(=O)CSc2ncc3c(n2)-c2ccccc2N(C)S3(=O)=O)c1` stands inactive: 94%; under `O=C(C1COc2ccccc2O1)N(Cc1cccnc1)c1nc2c(Cl)cccc2s1` (stereo unspecified), inactive: 79%; under `NC(=O)Cn1c(=O)n(CCCCCC(=O)NCc2ccc(F)cc2)c(=O)c2sccc21`, inactive: 75%. Take `CCOC(=O)N1CCN(Cc2nc3cc(NC(=O)C(C)C)ccc3n2C(C)C)CC1`: the survival was inactive: 68%. Under `CCCNC(=O)c1ccc(-c2nc(CS(=O)(=O)c3ccc(C)cc3)c(C)o2)cc1` stands inactive: 65%; under `COc1ccccc1N(CC(=O)Nc1ccc2c(c1)OCO2)S(=O)(=O)c1ccc(C)cc1`, inactive: 79%; under `O=C(c1ccc(F)cc1)N1CCC(c2nc(-c3ccc(S(=O)(=O)N4CCCC4)cc3)no2)CC1`, inactive: 92%. With `NC(=O)CSc1nnc(Cn2cnc3ccccc32)o1`, the survival was inactive: 79%. Then `O=C(CN1c2ccccc2S(=O)(=O)c2ccccc21)Nc1ccccc1Cl`, with inactive: 57%; and `O=C(Cn1cnc2onc(-c3ccc(F)cc3)c2c1=O)Nc1ccc(F)c(Cl)c1`, with inactive: 84%; and `CCc1nn(CC(=O)NCCCN2CCN(CC)CC2)c(=O)c2cc3occc3n12`, with inactive: 127%. Consider `CCOc1ccc(S(=O)(=O)c2cn(Cc3ccccc3C)c3ccc(OC)cc3c2=O)cc1`, for which the survival was inactive: 64%.

Consider `O=C(O)CCC(=O)Nc1nc(-c2ccccc2)cs1`, for which the survival was inactive: 85%. Under `CCCOc1ccc(-c2nonc2NC(=O)c2oc3ccc(Cl)cc3c2C)cc1OCCC` stands inactive: 48%; under `N#C/C(=C\c1cccnc1)C(=O)Nc1ccccc1`, inactive: 56%. Take `CCCCOc1ccc(Cn2c(=O)oc3ccc(C)cc32)cc1`: the survival is active: 40%.

As for `C=CCN1C(=O)/C(=C2/SC(C)=C(C)N2CC)SC1=Nc1c(C)n[nH]c1C`, the survival is inactive: 108%.

As for `O=C(Nc1ccc(N2CCN(c3ccc(F)cc3)CC2)c(C(=O)O)c1)c1ccccc1F`, the survival is inactive: 95%. Under `COc1ccc(C)cc1NC(=O)C1CCN(S(=O)(=O)c2ccc3c(c2)CCCN3C(C)=O)CC1` stands inactive: 77%. As for `CC1=C(C(=O)Nc2cccnc2)C(c2ccccc2)n2nc(SCc3ccccc3Cl)nc2N1` (stereo unspecified), the survival was inactive: 169%. `COC(=O)c1cc(S(=O)(=O)NCC2CCN(Cc3ccc(F)cc3)CC2)c[nH]1`: the survival is inactive: 77%. With `COCCNC(=O)CSc1nc2cc3c(cc2c(=O)n1CCCC(=O)NCc1ccc(OC)cc1)OCO3`, the survival was inactive: 84%. `CCSc1ncc(Cl)c(C(=O)N(Cc2ccc(N(C)C)cc2)Cc2ccco2)n1`: the survival is inactive: 104%. For the compound `COc1ccc(S(=O)(=O)N2CCN(c3ccc(Cl)c(Cl)c3)CC2)c2ccccc12`, the survival was inactive: 164%. On to `COCCNC(=O)c1ccc2c(c1)N(Cc1cc(C)ccc1C)C(=O)c1ccccc1S2(=O)=O`, for which the survival was inactive: 68%. Then `Cc1cccc(NC(=O)c2cc(-c3ccc4c(c3)OCCO4)on2)c1`, with inactive: 69%; and `Cc1ccc(NC(=O)CSc2nc3ccccc3nc2Cc2ccccc2)c(C)c1`, with inactive: 124%. As to `Cc1cc(NCc2ccccc2Cl)n2cnnc2n1`, the survival was inactive: 85%. In the case of `CCOc1ccc(Cn2c(-c3ccc(OCC)c(OC)c3)nc3ccccc32)cc1OC`, the survival is inactive: 79%. `Cc1cccc(-c2nnn3c2nc(NCCc2ccc(S(N)(=O)=O)cc2)c2ccccc23)c1`: the survival was inactive: 101%.
